Values marked as one replicate rest on one cluster of the flow cell; about a third of the high ones do not repeat.
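Further: ATP exposure 15 min at 22 °C before imaging.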

This series relates to ATP. The series is described as follows: switch fluorescence ratio, 500 uM ATP over buffer (Cy3 cluster intensity, sum of 5 cycles each) (fold (ratio)); higher = stronger signal-on switching upon ATP binding; sequences stand for … in TCGTCGGCAGCGTCAGATGTGTATAAGAGACAGTTTTTTTTTTTTTTTTTTTTTTTTT…TC. The following applies: aptamer strand: ATP DNA aptamer (quencher-CACCTGGGGGAGTATTGCGGAGGAAGG + anchor), 100 nM annealed; ATP concentration: 500 uM; one replicate. Summed up:
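Per cluster, summed Cy3 intensity from the target cycles was divided by that from the buffer cycles to give the fluorescence ratio, then averaged per switch-domain sequence. Clusters outside 100-1000 RFU were excluded. The Cy3-labelled switching-strand clusters, on a modified Illumina MiSeq flow-cell, were annealed to 100 nM quencher-labelled ATP aptamer and imaged in selection buffer, then after 15 min with 500 uM ATP at 22 °C, for five cycles with NaOH stripping and re-annealing between them.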
On to AGATTTTAGC, for which the switch fluorescence ratio came out at 0.969.

For ATCTACGGCC, the switch fluorescence ratio stood at 1.07.

As for GACTTCGGTG, the switch fluorescence ratio was found to be 0.964.

Regarding ACCCTCCGT, the switch fluorescence ratio worked out at 2.12.

As to AACGAAGGAA, the switch fluorescence ratio is 1.06.

Regarding ATACCTTTAC, the switch fluorescence ratio amounted to 1.33.

Consider GTCGTGCCCC, for which the switch fluorescence ratio turned out to be 0.979.

Take TGCCCAGGTA: the switch fluorescence ratio was determined as 2.22.

As for GTTAACGGCC, the switch fluorescence ratio was found to be 1.01.

Take GTTATCTTCT: the switch fluorescence ratio was 1.01.

Consider AGTTGCGTGG, for which the switch fluorescence ratio worked out at 0.976.

As for TTCGATAAGC, the switch fluorescence ratio was 1.01.

Take TTTGTCAGTC: the switch fluorescence ratio amounted to 0.967.

Take GCGCACGTGC: the switch fluorescence ratio was determined as 1.04.

In the case of TCATTACTGG, the switch fluorescence ratio amounted to 0.98.

As for GCAGCGCCCA, the switch fluorescence ratio is 1.02.

As to CTCTGGGGTG, the switch fluorescence ratio was 1.06.

Regarding GCTTTACTTT, the switch fluorescence ratio worked out at 1.01.

Regarding TCGCCGTTCC, the switch fluorescence ratio was 1.03.

For AAAGAAATCT, the switch fluorescence ratio was found to be 1.08.

TTTCAGCTAC: the switch fluorescence ratio worked out at 2.61.

Regarding CTGATAGCGG, the switch fluorescence ratio amounted to 1.19.

As to AGGGTGCCGA, the switch fluorescence ratio was 1.04.

As for CCATCAGTGC, the switch fluorescence ratio was determined as 1.93.

With GTTGGGAGAA, the switch fluorescence ratio came out at 0.992.

Take TCTGTCATG: the switch fluorescence ratio was 1.05.

For the sequence TCCTCGCCCT, the switch fluorescence ratio came to 2.

TGCGGGGCCT: the switch fluorescence ratio was found to be 1.03.

On to ACTGTCGAAG, for which the switch fluorescence ratio was found to be 1.

For AAATAGACCC, the switch fluorescence ratio is 1.01.

As for TTACAACCGG, the switch fluorescence ratio was found to be 0.998.

Regarding TATGAACTGG, the switch fluorescence ratio was 0.978.

As for CGTGTAGGG, the switch fluorescence ratio was 0.99.

As to CAAATCTGAG, the switch fluorescence ratio is 1.03.

For the sequence CCAGCGTATC, the switch fluorescence ratio stood at 1.5.

On to CGGTTGGATG, for which the switch fluorescence ratio amounted to 0.96.

As for TTCTGGCGAA, the switch fluorescence ratio was determined as 1.33.

Regarding GGGCGTAGTG, the switch fluorescence ratio stood at 0.99.

Take GCGGGGCTTG: the switch fluorescence ratio was found to be 1.01.

CTAAGAGGAG: the switch fluorescence ratio amounted to 0.976.

Turning to TAATGTGGTG, the switch fluorescence ratio was 1.05.

For the sequence GTTCTACGAA, the switch fluorescence ratio stood at 0.994.

Consider CGCCTTATAG, for which the switch fluorescence ratio was 1.09.

Regarding TTTTAAGTAC, the switch fluorescence ratio came to 1.18.

As for AATTTGTTAT, the switch fluorescence ratio turned out to be 0.994.

Turning to ATCCTGGCCC, the switch fluorescence ratio was found to be 1.08.

With GAGACTAGTT, the switch fluorescence ratio was 0.925.

ACAACCGCAA: the switch fluorescence ratio is 1.04.

Regarding CCGTGCACCC, the switch fluorescence ratio was 1.79.

In the case of TATTATAGC, the switch fluorescence ratio came out at 1.02.

For the sequence TAAGGGTT, the switch fluorescence ratio came to 1.

Turning to AAAGGATCAT, the switch fluorescence ratio is 1.01.

GCCCTTGTA: the switch fluorescence ratio turned out to be 0.984.

As for TTTGAGGACG, the switch fluorescence ratio is 1.09.

For the sequence CTCCTAGTCT, the switch fluorescence ratio was found to be 1.32.

CTTGAGTAAT: the switch fluorescence ratio worked out at 1.03.

TGACGTAGGA: the switch fluorescence ratio was found to be 0.99.

With TCCGGAATAT, the switch fluorescence ratio is 3.38.

Turning to ATAGTTCAGG, the switch fluorescence ratio was determined as 0.982.

Turning to GGGCGTGTAC, the switch fluorescence ratio was determined as 1.02.

Take CAATAGTCCG: the switch fluorescence ratio came out at 1.04.

Turning to TAGCTTTCGC, the switch fluorescence ratio is 0.985.

As for GATGCTGGT, the switch fluorescence ratio was found to be 1.

With ATACGGGCCC, the switch fluorescence ratio was found to be 1.04.

Take TCTGTGAAGG: the switch fluorescence ratio was determined as 1.01.

For the sequence ACGAAATAG, the switch fluorescence ratio is 0.99.

Turning to TTGTTTGGTC, the switch fluorescence ratio was 0.958.

For ATTTATGGCG, the switch fluorescence ratio came to 1.03.

Consider GGGACTAACG, for which the switch fluorescence ratio was found to be 1.01.

Turning to TGTTTTGTAC, the switch fluorescence ratio came out at 1.07.

For the sequence CAGGACTAGG, the switch fluorescence ratio is 1.01.

Consider ACCTCCGCCT, for which the switch fluorescence ratio is 4.59.

Turning to TATATATCGT, the switch fluorescence ratio amounted to 0.973.

For the sequence GGACGCATTA, the switch fluorescence ratio amounted to 1.68.

Consider TTCCGTGTCC, for which the switch fluorescence ratio worked out at 1.08.

On to CCTAAAGTCT, for which the switch fluorescence ratio amounted to 1.03.

For TCTGACT, the switch fluorescence ratio is 1.02.

Consider GTGGTGAGTT, for which the switch fluorescence ratio was determined as 0.966.

For GACAAAGTAT, the switch fluorescence ratio was 0.988.

The values are drawn from the supplement of paper PMC10126150.
